The domain aggregation screens of Martell et al. (2025)

Test: soluble fraction after stress (log2 fold change); higher = more stays soluble; pooled small domains, quantitative proteomics
Settings: stress: 75 degC
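Note: 20 min heating vs room temperature control held 20 min.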

Row | Sequence | soluble fraction (log2)
1 | HMADYYSVLGVERDATEEEIKRAYRKMSRKYHPDLAGPQFEEKFKEVNTAYEVLSDPEKRRMFDMGVDPN | 0.245
2 | HMDQVDDEELLDLVELEVRELLSAYEFPGDDIPIIKGSALAALEGGDEATGKNAILELMKAVDDYVPQPE | -0.168
3 | HMGIYRHFKGGLYEVVGTAKHSETEEELIVYRALYGDYGLWARPAAMFTETVEIDGEPLPRFSLI | -0.313
4 | HMKAAYITIHDKIKDDIDLGIWKIGQRLPSERDLADEFGVSRMTLRQAITLLVEEGVLTRKVGSGTYVAS | -3.44
5 | HMKYKDYYAVLGVPRDADLDQIKKAYRKLARQFHPDVSKEPNAEAQFKEAGEAYATLKDAEKRAAYDQLG | 0.341
6 | HMNDDYYAILGVSRDADQSEIKKAYRKKARETHPDYGGDEEAFKAVSVAYETLSDPEKRRMYDIGGPDAAR | 0.169
7 | HMPLHDIGKVGIPDHILLKPGKLTPAEWEVMKTHARLGAAAIEQAEREATRPVEFLVLAKEIAHHHHER | 0.811
8 | HMPREEGIVKWFNRTKGFGFIIRENGDEIFVHHRSVSAHGGQRANLSDGQRVTFTVVERSKGWQAEDVDP | -2.08
9 | HMQSHRFQRLQNDLANRIAQTPPSERLPSEPQLAQELGVSRATLREAMRAFEAQGLIRRKQGAGTFVVG | 0.06
10 | HMQVDDAELIDLVEMEIRELLTSYEFPGDTIPIVKGSALAALEGRDDEIGKNSILELMKAVDESIPQPT | 0.205
11 | HMSDYYSVLGVSRDATGEEIKRAYRKLARELHPDVNPDPATNEKFKEVTAAYEVLSDPSKRQMYDLGGDPR | -0.108
12 | HMVDYYEVLGVRVDASDSEVKRAYRRLIVENHPDKLIAQGLPQEFIDLANEKMGAINSAYDMIKKERRI | -0.521
